Results: a collection of fitness landscapes (doi:10.1016/j.celrep.2020.107928)
In all, about 81,000 sequences were measured (“one-hybrid fitness for binding parS DNA”: median about -0.17, highest 2% from about 0.51 on). Some of the results follow.

B1: Caulobacter ParB omega fusion; a variant is named by its letters at X, in order, B8GW30 (parent)
chain: MESVVVGEPGMSEGRRGLGRGLSALLGEVDAAPAQAPGEQLGGSREAPIEILQRNPDQPRRTFREEDLEDLSNSIREKGVLQPILVRPSPDTAGEYQIVAGERAWRAAQRAGLKTVPIMVRELDDLAVLEIGIIENVQRADLNVLEEALSYKVLMEKFERTQENIAQTIGKSXSHVANXMRLLXLPDEVQSYLVSGELTAXHARAIAAAADPVALAKQIIEGGLSVRETEALARKAPNLSAGKSKGGRPPRVKDTDTQALESDLSSVLGLDVSIDHRGSTGTLTITYATLEQLDDLCNRLTRGI

Variants of: B1
Assay: one-hybrid fitness for binding parS DNA (scaled: cognate 1, non-cognate 0); higher = stronger binding
Details: with parS DNA site
In short: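 The reporter was HIS3, with the binding site 19 bp from the promoter, in E. coli USO used for bacterial one-hybrid selection of Caulobacter ParB libraries with four specificity codons randomised. Growth was on M9 lacking histidine, with 0.1 mM IPTG and 5 mM 3-AT, for 48 hours at 37°C. Illumina sequencing covered plasmids before and after selection; three replicate libraries were pooled and variants with under 10 reads dropped. A fitness score is the log change in variant-to-wild-type read ratio, rescaled to the cognate and non-cognate references.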

Row | Variant | one-hybrid fitness for binding parS DNA
1 | IEQW | ≤ 0.2
2 | PLRG | ≤ 0.2
3 | EKMR | ≤ 0.2
4 | QAWP | ≤ 0.2
5 | AQHF | ≤ 0.2
6 | RSCN | 0.407
7 | NFFG | ≤ 0.2
8 | SPID | ≤ 0.2
9 | ASIP | ≤ 0.2
10 | VAMG | ≤ 0.2
11 | SRQA | ≤ 0.2
12 | TAHL | ≤ 0.2
13 | LMSN | ≤ 0.2
14 | RMYM | 0.348
15 | NHPT | ≤ 0.2
16 | ASCG | ≤ 0.2
17 | GHPF | ≤ 0.2
18 | IPFF | ≤ 0.2
19 | SSDK | ≤ 0.2
20 | HGCR | ≤ 0.2
21 | PGNK | ≤ 0.2
22 | RNLY | 0.303
23 | LRLK | ≤ 0.2
24 | QHMN | ≤ 0.2

Row | Variant | one-hybrid fitness for binding parS DNA
25 | KIHR | ≤ 0.2
26 | RLAH | ≤ 0.2
27 | SGTN | ≤ 0.2
28 | ADNC | ≤ 0.2
29 | SRTT | ≤ 0.2
30 | TAIK | ≤ 0.2
31 | HPPQ | ≤ 0.2
32 | TWTC | ≤ 0.2
33 | RHSG | 0.958
34 | TQPE | ≤ 0.2
35 | APPA | ≤ 0.2
36 | KHVE | ≤ 0.2
37 | RHLL | ≤ 0.2
38 | GMIS | ≤ 0.2
39 | GDLR | ≤ 0.2
40 | PAFP | ≤ 0.2
41 | CDSL | ≤ 0.2
42 | VTSS | ≤ 0.2
43 | EGKI | ≤ 0.2
44 | RHAG | 0.969
45 | SIEG | ≤ 0.2
46 | PFRI | ≤ 0.2
47 | GISC | ≤ 0.2
48 | TMSP | ≤ 0.2

Row | Variant | one-hybrid fitness for binding parS DNA
49 | CDTG | ≤ 0.2
50 | DIAY | ≤ 0.2
51 | LGAR | ≤ 0.2
52 | LSRL | ≤ 0.2
53 | QTNQ | ≤ 0.2
54 | THCR | ≤ 0.2
55 | TCRH | ≤ 0.2
56 | AYPT | ≤ 0.2
57 | LRSS | ≤ 0.2
58 | RKVD | ≤ 0.2
59 | HFCR | ≤ 0.2
60 | WTFN | ≤ 0.2
61 | MQWR | ≤ 0.2
62 | PRSV | ≤ 0.2
63 | QMSM | ≤ 0.2
64 | EVTT | ≤ 0.2
65 | DMTS | ≤ 0.2
66 | FGYT | ≤ 0.2
67 | EDNR | ≤ 0.2
68 | QYVQ | ≤ 0.2
69 | TNPV | ≤ 0.2
70 | DCRS | ≤ 0.2
71 | FTGR | ≤ 0.2
72 | PRWL | ≤ 0.2

Row | Variant | one-hybrid fitness for binding parS DNA
73 | FIMR | ≤ 0.2
74 | DQNG | ≤ 0.2
75 | MKCT | ≤ 0.2
76 | IRNR | ≤ 0.2
77 | RYWS | 0.99
78 | YGDR | ≤ 0.2
79 | MHFY | ≤ 0.2
80 | LLVG | ≤ 0.2
81 | ESVT | ≤ 0.2
82 | FTWG | ≤ 0.2
83 | QVFR | ≤ 0.2
84 | EMAA | ≤ 0.2
85 | LPGG | ≤ 0.2
86 | RYEP | ≤ 0.2
87 | SGNL | ≤ 0.2
88 | QRLN | ≤ 0.2
89 | RWRL | ≤ 0.2
90 | NDLL | ≤ 0.2
91 | PRGV | ≤ 0.2
92 | NTML | ≤ 0.2
93 | QPDS | ≤ 0.2
94 | NRQC | ≤ 0.2
95 | QASI | ≤ 0.2
96 | KRMS | ≤ 0.2

Row | Variant | one-hybrid fitness for binding parS DNA
97 | HRIC | ≤ 0.2
98 | PFPL | ≤ 0.2
99 | TPAG | ≤ 0.2
100 | HHRR | ≤ 0.2
101 | RMNK | ≤ 0.2
102 | TEMG | ≤ 0.2
103 | TDNA | ≤ 0.2
104 | APSS | ≤ 0.2
105 | SVVG | ≤ 0.2
106 | RCGY | 0.43
107 | YCHS | ≤ 0.2
108 | PRYS | ≤ 0.2
109 | MTDD | ≤ 0.2
110 | GEPF | ≤ 0.2
111 | ELYR | ≤ 0.2
112 | INPT | ≤ 0.2
113 | SRLV | ≤ 0.2
114 | STQG | ≤ 0.2
115 | RCKT | 0.748
116 | HQDR | ≤ 0.2
117 | KPKR | ≤ 0.2
118 | ESIT | ≤ 0.2
119 | PHEW | ≤ 0.2
120 | EIDS | ≤ 0.2

Row | Variant | one-hybrid fitness for binding parS DNA
121 | TKIE | ≤ 0.2
122 | YRIG | ≤ 0.2
123 | MPFT | ≤ 0.2
124 | FFHG | ≤ 0.2
125 | VYGA | ≤ 0.2
126 | KTPR | ≤ 0.2
127 | WLRC | ≤ 0.2
128 | RDDA | ≤ 0.2
129 | HRFA | ≤ 0.2
130 | HKMR | ≤ 0.2
131 | QHFI | ≤ 0.2
132 | PHAA | ≤ 0.2
133 | SLWV | ≤ 0.2
134 | NPNC | ≤ 0.2
135 | SNDR | ≤ 0.2
136 | QRWP | ≤ 0.2
137 | WDRS | ≤ 0.2
138 | TPYN | ≤ 0.2
139 | PWLI | ≤ 0.2
140 | RITY | 0.443
141 | FRTT | ≤ 0.2
142 | QSLA | ≤ 0.2
143 | KDSS | ≤ 0.2
144 | MQFT | ≤ 0.2

Row | Variant | one-hybrid fitness for binding parS DNA
145 | QDWF | ≤ 0.2
146 | TKTD | ≤ 0.2
147 | RRRL | ≤ 0.2
148 | CMWR | ≤ 0.2
149 | HSRF | ≤ 0.2
150 | DEKG | ≤ 0.2
151 | GRGD | ≤ 0.2
152 | SQHS | ≤ 0.2
153 | TPLT | ≤ 0.2
154 | SCPT | ≤ 0.2
155 | VGMH | ≤ 0.2
156 | YIAS | ≤ 0.2
157 | TTIT | ≤ 0.2
158 | CSGT | ≤ 0.2
159 | NLEC | ≤ 0.2
160 | QTVN | ≤ 0.2
161 | RAPQ | ≤ 0.2
162 | FQQS | ≤ 0.2
163 | YACV | ≤ 0.2
164 | QQQM | ≤ 0.2
165 | RCEF | ≤ 0.2
166 | QMKH | ≤ 0.2
167 | LYLG | ≤ 0.2
168 | EIMG | ≤ 0.2

Row | Variant | one-hybrid fitness for binding parS DNA
169 | TWHE | ≤ 0.2
170 | WSTF | ≤ 0.2
171 | VLHF | ≤ 0.2
172 | HCYR | ≤ 0.2
173 | DGDV | ≤ 0.2
174 | GLLD | ≤ 0.2
175 | QFYS | ≤ 0.2
176 | KGMS | ≤ 0.2
177 | YDTS | ≤ 0.2
178 | PLPS | ≤ 0.2
179 | WACG | ≤ 0.2
180 | FMGL | ≤ 0.2
181 | TPLA | ≤ 0.2
182 | RRWD | ≤ 0.2
183 | SYHT | ≤ 0.2
184 | KELG | ≤ 0.2
185 | PVTG | ≤ 0.2
186 | NRDM | ≤ 0.2
187 | VCVR | ≤ 0.2
188 | MAMG | ≤ 0.2
189 | MDMR | ≤ 0.2
190 | FNPV | ≤ 0.2
191 | SIDW | ≤ 0.2
192 | MQIG | 0.314

Row | Variant | one-hybrid fitness for binding parS DNA
193 | EQSS | ≤ 0.2
194 | SMLT | ≤ 0.2
195 | WQCC | ≤ 0.2
196 | QESC | ≤ 0.2
197 | SICR | ≤ 0.2
198 | AQNE | ≤ 0.2
199 | NYMR | ≤ 0.2
200 | YVDC | ≤ 0.2
201 | FYEL | ≤ 0.2
202 | HSMM | ≤ 0.2
203 | HTVF | ≤ 0.2
204 | GKND | ≤ 0.2
205 | FTSK | ≤ 0.2
206 | DCVD | ≤ 0.2
207 | SWVC | ≤ 0.2
208 | LTLI | ≤ 0.2
209 | VTIS | ≤ 0.2
210 | LYAS | ≤ 0.2
211 | KNNT | ≤ 0.2
212 | WQGR | ≤ 0.2
213 | TTWG | ≤ 0.2
214 | ANAI | ≤ 0.2
215 | TGFI | ≤ 0.2
216 | IPAH | ≤ 0.2

Row | Variant | one-hybrid fitness for binding parS DNA
217 | EIIC | ≤ 0.2
218 | MHVS | ≤ 0.2
219 | DWMV | ≤ 0.2
220 | DAAC | ≤ 0.2
221 | QAMM | ≤ 0.2
222 | CTSR | ≤ 0.2
223 | YTQS | ≤ 0.2
224 | ANTK | ≤ 0.2
225 | RTMQ | 0.208
226 | INPR | ≤ 0.2
227 | HKNG | ≤ 0.2
228 | MRKW | ≤ 0.2
229 | KRTT | ≤ 0.2
230 | AAKC | ≤ 0.2
231 | ISKV | ≤ 0.2
232 | IKNT | ≤ 0.2
233 | CDTV | ≤ 0.2
234 | LDQV | ≤ 0.2
235 | HIAE | ≤ 0.2
236 | WLAR | ≤ 0.2
237 | NCWT | ≤ 0.2
238 | LACI | ≤ 0.2
239 | QYNP | ≤ 0.2
240 | IGER | ≤ 0.2

Row | Variant | one-hybrid fitness for binding parS DNA
241 | NRHY | ≤ 0.2
242 | AIGN | ≤ 0.2
243 | LAGC | ≤ 0.2
244 | VKQV | ≤ 0.2
245 | VREL | ≤ 0.2
246 | CGMC | ≤ 0.2
247 | RTMD | ≤ 0.2
248 | PDFS | ≤ 0.2
249 | QSAN | ≤ 0.2
250 | GKQT | ≤ 0.2
251 | KMLG | ≤ 0.2
252 | CYWM | ≤ 0.2
253 | TNHV | ≤ 0.2
254 | SSTH | ≤ 0.2
255 | PHAR | ≤ 0.2
256 | KAPW | ≤ 0.2
257 | DHSV | ≤ 0.2
258 | QTNI | ≤ 0.2
259 | HQLS | ≤ 0.2
260 | PPCN | ≤ 0.2
261 | QDNY | ≤ 0.2
262 | SPQW | ≤ 0.2
263 | HGAL | ≤ 0.2
264 | VFMV | ≤ 0.2

Row | Variant | one-hybrid fitness for binding parS DNA
265 | KRNM | ≤ 0.2
266 | VKVT | ≤ 0.2
267 | IWKN | ≤ 0.2
268 | PGGI | ≤ 0.2
269 | HTLF | ≤ 0.2
270 | TQWT | ≤ 0.2
271 | PLPE | ≤ 0.2
272 | VGCV | ≤ 0.2
273 | SKGS | ≤ 0.2
274 | METI | ≤ 0.2
275 | ESLW | ≤ 0.2
276 | ANLH | ≤ 0.2
277 | SCRA | ≤ 0.2
278 | TLSV | ≤ 0.2
279 | IRGG | ≤ 0.2
280 | LSIH | ≤ 0.2
281 | GFAT | ≤ 0.2
282 | ANGI | ≤ 0.2
283 | NLAN | ≤ 0.2
284 | SMFV | ≤ 0.2
285 | DVIG | ≤ 0.2
286 | PLTP | ≤ 0.2
287 | IDHV | ≤ 0.2
288 | CLIV | ≤ 0.2

Row | Variant | one-hybrid fitness for binding parS DNA
289 | DCMM | ≤ 0.2
290 | IRCK | ≤ 0.2
291 | HSNA | ≤ 0.2
292 | CTPL | ≤ 0.2
293 | TAVF | ≤ 0.2
294 | SPIR | ≤ 0.2
295 | NYPG | ≤ 0.2
296 | MLFT | ≤ 0.2
297 | NQAR | ≤ 0.2
298 | LLMK | ≤ 0.2
299 | QIPR | ≤ 0.2
300 | LDEC | ≤ 0.2
301 | INVR | ≤ 0.2
302 | YSTR | ≤ 0.2
303 | ENRR | ≤ 0.2
304 | PRRS | ≤ 0.2
305 | QQPN | ≤ 0.2
306 | PVEC | ≤ 0.2
